The chains are these.
B1: LINE1-mini (parent)
chain: GGCAGAGCUCAACACAGCGUGGCAAAGUGGCUGUGGCUAGACUGCC

The source gives no read counts; variants with many changes may rest on few reads.

In the data set the parent is B1. In words: self-cleavage, relative activity (ratio to wild type); higher = more cleavage; in vitro, sequencing; the parent is a self-cleaving ribozyme.
As for GGCAGAGCUCAACCCAGCGUGGCAAAGUGGCUGAGGCUAGCCUGCC [A14C U34A A41C], the self-cleavage turned out to be 0.01.

In the case of GGCAGAGCUCAACCCAGCGUGGCAAAGUGGCUGUGUUUAGACUGCC [A14C G36U C37U], the self-cleavage is 0. As for GGCAGAGCUCAACGCAGCGUGGCACAGUGGCUGUGGGUAGACUGCC [A14G A25C C37G], the figure is 0.02; as for GGCAGAGCUCAACCCAGCGUUGCAAAGGGGCUGUGGCUAGAUUGCC [A14C G21U U28G C42U], 0.06. The result for GGCAGAGCUCAACGCAGCGUGGCAAUGUUGCUGUGGCUAGACUGCC [A14G A26U G29U] reads 0.13. With GGCAGAGCUCAACCCAGCGUGCCAAAGUGGCUGUGUCUAGACAGCC [A14C G22C G36U U43A], the self-cleavage turned out to be 0.02. The result for GGCAGAGCUCAACGCAGCGUGGCAGAGUGGCUGUGGCUAGACUGAC [A14G A25G C45A] reads 0.06; that for GGCAGAGCUCAACCCAGCGGGGCAAAGUGGCUGUUGCUAGACUGUC [A14C U20G G35U C45U], 0.05. The result for GGCAGAGCUCAACGAAGCGUGGCCAAGUGGCUGUGGCUAGAGAGCC [A14G C15A A24C C42G U43A] reads 0.01; that for GGCAGAGCUCAACGUAGCGUGGCAAGGUGGCUGUGGCUAGACUACC [A14G C15U A26G G44A], 0.03; that for GGCAGAGCUCAACCCAGCGCGGCAAAGUGGCUGUGGGUAGACUGGC [A14C U20C C37G C45G], 0.02. As for GGCAGAGCUCAACCCAGCGUGGCAAAGUGUCUGUGGCGAGACUGCC [A14C G30U U38G], the figure is 0.03. With GGCAGAGCUCAACCCAGCGUGGCAAAGUGGCUGUGGCAAGACUGAC [A14C U38A C45A], the self-cleavage was 0.02. In the case of GGCAGAGCUCAACCCAGCGUGGCAAAUUGUCUGUGGCUAGACUGCC [A14C G27U G30U], the self-cleavage is 0.12. For the variant GGCAGAGCUCAACCCAGCGUGGCAAAGUGGCGGUAGCUAGACUGCC [A14C U32G G35A], the self-cleavage is 0.06. The result for GGCAGAGCUCAACCCAGCGUGGCAAAGCGGCUGAGGCUAGAUUGCC [A14C U28C U34A C42U] reads 0.03; that for GGCAGAGCUCAACCCAGCGUGGCAAAGUUGCUGUGGCUAGACUGCA [A14C G29U C46A], 0.08; that for GGCAGAGCUCAACGAAGCGUGGCAAAGUGGCUGUGGCUGGACUGCC [A14G C15A A39G], 0.01. As for GGCAGAGCUCAACCCAGCGUGGCAAAGUGGCGGUGGCUAGAGUGCC [A14C U32G C42G], the figure is 0.01.

Regarding GGCAGAGCUCAACCCAGCGUGGCAAAGUGGCUGCGGUCAGACUGCC [A14C U34C C37U U38C], the self-cleavage came out at 0.1. As for GGCAGAGCUCAACCCAGCGUGGCAAAGUGAACGUGGCUAGACUGCC [A14C G30A C31A U32C], the figure is 0.04; as for GGCAGAGCUCAACCCAGCGUGGCAAAGUAGCUGUGGCUAGAGUGCU [A14C G29A C42G C46U], 0.02; as for GGCAGAGCUCAACGGAGCGUGCCAAAGUCGCUGUGGCAAGGAUGGC [A14G C15G G22C G29C U38A A41G C42A C45G], 0.01. As for GGCAGAGCUCAACCCAGCGCGGCAAAGUGGCUGUGGCUAGACUAGC [A14C U20C G44A C45G], the figure is 0.02; as for GGCAGAGCUCAACGCAGAGUGGCAAAGUGGCUGUGGCUAAACUGCC [A14G C18A G40A], 0.03; as for GGCAGAGCUCAACGGAGCGUGGCAAAGUGGCUGUGGCUAGAAUGCC [A14G C15G C42A], 0.05.

On to GGCAGAGCUCAACCCAGCUUGGCAAAGUGGCUGUUGCGAGACUGCC [A14C G19U G35U U38G], for which the self-cleavage is 0.02. As for GGCAGAGCUCAACCCAGCGAGGCAAAGUGGCUGUGGCUAGUCUGCC [A14C U20A A41U], the figure is 0.04. As for GGCAGAGCUCAACGUAGCGUGGCAAAGUCGCUGCGCCUAGACUGCC [A14G C15U G29C U34C G36C], the figure is 0.05; as for GGCAGAGCUCAACGGAGCAUGGCAAAGUGGCUGUGCCUAGUCGGGC [A14G C15G G19A G36C A41U U43G C45G], 0.02.

Take GGCAGAGCUCAACCCAGCGUGGCAAAGUGGCAGUUGCUAGACUGCC [A14C U32A G35U]: the self-cleavage stood at 0.01. As for GGCAGAGCUCAACGCAGCGUGGCUAACUGGCUGUGGCUAGACUGUC [A14G A24U G27C C45U], the figure is 0.11. As for GGCAGAGCUCAACGCAGCGUGGCACAGUGGCUGUGGCUAAACUGCA [A14G A25C G40A C46A], the figure is 0; as for GGCAGAGCUCAACCCAGCGUGUCAAAGUGUGUGUUGCUAGACUGCC [A14C G22U G30U C31G G35U], 0.06.

Regarding GGCAGAGCUCAACGCAGCGUGGCAAGGUGGCUGUGGCUAUACUGCC [A14G A26G G40U], the self-cleavage came to 0.07. As for GGCAGAGCUCAACGCUGCGUGGCAAAGUGCCAGUGGCUAGACUGCC [A14G A16U G30C U32A], the figure is 0.01; as for GGCAGAGCUCAACGCGGCGUGGCAAAUUGGCUGUGGCUAGACUGCC [A14G A16G G27U], 0.08; as for GGCAGAGCUCAACGCAGAGUGGCACAGAGGCUGUGGCUAGACUGUC [A14G C18A A25C U28A C45U], 0.05. As for GGCAGAGCUCAACCCAGCGGGACUGAGUGGCUGUGGCUAGACUGCC [A14C U20G G22A A24U A25G], the figure is 0.21; as for GGCAGAGCUCAACCCAGCGUUGGAAAAUGGCUGUUGCUAAACUGCC [A14C G21U C23G G27A G35U G40A], 0.04; as for GGCAGAGCUCAACGCAGCGUGGCAACGUCGCACUGGCUAGAUUGCC [A14G A26C G29C U32A G33C C42U], 0.03. The result for GGCAGAGCUCAACCCAGCGGGGCAAAGUGGCUGUAGCUAGACUGCC [A14C U20G G35A] reads 0.06; that for GGCAGAGCUCAACCCAGCGUGGCAAAGUGGCCGUCGCUAGACUGCC [A14C U32C G35C], 0. For GGCAGAGCUCAACGUAGCGUAGCAAAUUGGCUGUGGCAAGACUGCC [A14G C15U G21A G27U U38A], the self-cleavage was 0.34.

As to GGCAGAGCUCAACCCAGCGGGGCAAACUGCCUGUGGCUAGACUGCC [A14C U20G G27C G30C], the self-cleavage amounted to 0.03.

As for GGCAGAGCUCAACGCAGCGUGGCGAAGUGGCUGUGACUAGACUGCC [A14G A24G G36A], the self-cleavage amounted to 0.07. The result for GGCAGAGCUCAACCCAGCGUGUCAAAGUGGCUGUGGAUAGACCGCC [A14C G22U C37A U43C] reads 0.03. In the case of GGCAGAGCUCAACCCAGCGUGGCAAAGUGUCUGUUGCUAGACUGCC [A14C G30U G35U], the self-cleavage amounted to 0.05. The result for GGCAGAGCUCAACCCAGCGAGGCAAAGUGGCUAUGGCUAGACUGCC [A14C U20A G33A] reads 0.06; that for GGCAGAGCUCAACGCCGCGUGGCAACGUGGCUGUGGCUAGACUGCC [A14G A16C A26C], 0.03; that for GGCAGAGCUCAACCCAGCGUGGCAAAGUGGCUGUCACUAGACUGCC [A14C G35C G36A], 0.03. Turning to GGCAGAGCUCAACGUAGCGUGGGAAAGUGGCUGUGGCUAGACCGCC [A14G C15U C23G U43C], the self-cleavage is 0.01. As for GGCAGAGCUCAACGCAGCGUGGCCAAGUUGCUGUGGCUACACUGCC [A14G A24C G29U G40C], the figure is 0.01.

In the case of GGCAGAGCUCAACGUAGAGUGGCAAAGUGGCUGUGGCUAGACUGCC [A14G C15U C18A], the self-cleavage came out at 0. As for GGCAGAGCUCAACCCAGCGUGUUAAAGUUGCUGUGGCUAGACUGCC [A14C G22U C23U G29U], the figure is 0.17; as for GGCAGAGCUCAACGCAGAGUGGCAAACUGGCUGUGGCUAGACUGCC [A14G C18A G27C], 0.03.
